± gives the standard deviation of the averaged measurements. Whole data set: some 33,000 sequences, median “E-score (dimensionless, -0.5 to 0.5)” near -0.049, cut for the highest 2% near 0.37. This is one part of the list.
What follows are sequences tested on T1, PmTbr T-box DNA-binding domain (GST fusion) (assay: PBM E-score of 8-mer (E-score (dimensionless, -0.5 to 0.5)); Tbr is Tbrain of the sea star Patiria miniata (Pm) or the sea urchin Strongylocentrotus purpuratus (Sp); higher = stronger binding preference; most listed sequences are background and not binding sites). Conditions: the construct has about 5 more residues each side.
T1 sequence: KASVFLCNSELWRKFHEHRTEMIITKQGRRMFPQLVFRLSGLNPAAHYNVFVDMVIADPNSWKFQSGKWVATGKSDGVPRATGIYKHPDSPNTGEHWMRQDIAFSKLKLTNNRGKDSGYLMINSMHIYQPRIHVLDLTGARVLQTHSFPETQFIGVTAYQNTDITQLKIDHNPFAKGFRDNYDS
In short: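 Primer extension turned Universal Agilent oligonucleotide arrays double-stranded. They were incubated with 200 nM protein in PBS (pH 7.5); the protein was a GST-fused Tbr T-box DNA-binding domain expressed in BL21 E. coli at 20 °C and purified on glutathione. Every ungapped 8-mer was scored from the scanned, quantified probe intensities, and the Universal PBM Analysis Suite gave each an enrichment E-score averaged over duplicate arrays.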
For ATTTCAGA, the “PBM E-score of 8-mer” value was -0.159 ± 0.017.
For AACTTCGG, the “PBM E-score of 8-mer” value was -0.0335 ± 0.087.
In the case of TTCGGCAA, the “PBM E-score of 8-mer” value is reported as 0.0917 ± 0.035.
For CAGATGCG, the “PBM E-score of 8-mer” value was -0.135 ± 0.048.
For CTCAAAAA, the “PBM E-score of 8-mer” value was 0.132 ± 0.093.
With AAACTAGG the “PBM E-score of 8-mer” value was -0.128 ± 0.11.
In the case of GTTGAACA, the “PBM E-score of 8-mer” value is reported as -0.0347 ± 0.1.
GGTCCCCA was tested, and the “PBM E-score of 8-mer” value was -0.0432 ± 0.058.
CGTTCCAA was tested, and the “PBM E-score of 8-mer” value was 0.0337 ± 0.021.
In the case of TAAGAAAA, the “PBM E-score of 8-mer” value is reported as -0.169 ± 0.12.
In the case of GCCCGTAC, the “PBM E-score of 8-mer” value is reported as -0.227 ± 0.068.
In the case of CCACAAAC, the “PBM E-score of 8-mer” value is reported as 0.0201 ± 0.024.
In the case of AGCCCTCA, the “PBM E-score of 8-mer” value is reported as -0.0517 ± 0.014.
With GGTCTGCA the “PBM E-score of 8-mer” value was -0.153 ± 0.067.
With CGCTACGC the “PBM E-score of 8-mer” value was 0.15 ± 0.055.
For ACGCTCAT, the “PBM E-score of 8-mer” value was -0.0967 ± 0.08.
ATTTCGGG was tested, and the “PBM E-score of 8-mer” value was 0.0944 ± 0.047.
AAAGGGAC was tested, and the “PBM E-score of 8-mer” value was -0.17 ± 0.05.
ACTGGTAT was tested, and the “PBM E-score of 8-mer” value was -0.0656 ± 0.043.
For ACTCGACA, the “PBM E-score of 8-mer” value was 0.248 ± 0.0043.
CTTTATAA was tested, and the “PBM E-score of 8-mer” value was -0.165 ± 0.077.
In the case of CTACGATC, the “PBM E-score of 8-mer” value is reported as -0.00343 ± 0.0069.
In the case of CGGCGTAG, the “PBM E-score of 8-mer” value is reported as -0.142 ± 0.042.
ACATTTAC was tested, and the “PBM E-score of 8-mer” value was -0.01 ± 0.069.
In the case of ACAATTGC, the “PBM E-score of 8-mer” value is reported as 0.191 ± 0.044.
ACCGGGTC was tested, and the “PBM E-score of 8-mer” value was 0.0499 ± 0.079.
In the case of CTAAAGGC, the “PBM E-score of 8-mer” value is reported as 0.0477 ± 0.0078.
In the case of CGTTTTTA, the “PBM E-score of 8-mer” value is reported as -0.0355 ± 0.06.
For GGGCATAC, the “PBM E-score of 8-mer” value was -0.246 ± 0.11.
With CCTAGTGA the “PBM E-score of 8-mer” value was 0.157 ± 0.0087.
With ATTCAGAC the “PBM E-score of 8-mer” value was -0.195 ± 0.019.
CTCTGTCA was tested, and the “PBM E-score of 8-mer” value was 0.105 ± 0.032.
With CCTTACCC the “PBM E-score of 8-mer” value was -0.182 ± 0.013.
With CATACGAG the “PBM E-score of 8-mer” value was -0.128 ± 0.04.
For AATACCCT, the “PBM E-score of 8-mer” value was -0.0692 ± 0.063.
CTTCTATA was tested, and the “PBM E-score of 8-mer” value was -0.287 ± 0.067.
In the case of GCGCAGGA, the “PBM E-score of 8-mer” value is reported as -0.0924 ± 0.067.
In the case of AAAGCTTG, the “PBM E-score of 8-mer” value is reported as -0.122 ± 0.017.
In the case of GGGTTCTA, the “PBM E-score of 8-mer” value is reported as 0.00309 ± 0.029.
In the case of AGTGAGGA, the “PBM E-score of 8-mer” value is reported as 0.2286 ± 0.001.
For AAAAGCCC, the “PBM E-score of 8-mer” value was -0.255 ± 0.028.
In the case of AAGGTTGT, the “PBM E-score of 8-mer” value is reported as 0.0754 ± 0.05.
With CCCGCACA the “PBM E-score of 8-mer” value was 0.068 ± 0.063.
In the case of TTAACTAA, the “PBM E-score of 8-mer” value is reported as -0.185 ± 0.0079.
In the case of GCAAAGTA, the “PBM E-score of 8-mer” value is reported as -0.18 ± 0.015.
With TCCCCACA the “PBM E-score of 8-mer” value was 0.168 ± 0.026.
With AACCTGGG the “PBM E-score of 8-mer” value was -0.0909 ± 0.015.
With AAATTCTA the “PBM E-score of 8-mer” value was -0.0773 ± 0.07.
With ACGGATCA the “PBM E-score of 8-mer” value was 0.0425 ± 0.074.
In the case of CCGGTATA, the “PBM E-score of 8-mer” value is reported as -0.152 ± 0.0044.
In the case of GCTTTGCC, the “PBM E-score of 8-mer” value is reported as -0.119 ± 0.007.
AGCGGCGA was tested, and the “PBM E-score of 8-mer” value was 0.015 ± 0.044.
In the case of AGTCAATA, the “PBM E-score of 8-mer” value is reported as -0.25 ± 0.033.
With GCTTCCAA the “PBM E-score of 8-mer” value was -0.314 ± 0.015.
For CCCACCCG, the “PBM E-score of 8-mer” value was 0.105 ± 0.0088.
With AACTTCGT the “PBM E-score of 8-mer” value was -0.129 ± 0.026.
GTTTTTGA was tested, and the “PBM E-score of 8-mer” value was 0.0403 ± 0.011.
In the case of ATGTACTC, the “PBM E-score of 8-mer” value is reported as -0.188 ± 0.01.
With ACCCAATG the “PBM E-score of 8-mer” value was -0.152 ± 0.018.
With ACGGCATC the “PBM E-score of 8-mer” value was -0.172 ± 0.02.
For GTTGTGCA, the “PBM E-score of 8-mer” value was 0.0183 ± 0.032.
With AAGACGGT the “PBM E-score of 8-mer” value was -0.0541 ± 0.02.
With CCGGTGGC the “PBM E-score of 8-mer” value was -0.00886 ± 0.016.
For GCCTTCTA, the “PBM E-score of 8-mer” value was 0.0362 ± 0.05.
For AGCCTCAA, the “PBM E-score of 8-mer” value was -0.254 ± 0.0068.
For ACCTTATC, the “PBM E-score of 8-mer” value was 0.149 ± 0.034.
For ACAGGCAG, the “PBM E-score of 8-mer” value was -0.00115 ± 0.046.
ACACCTGA was tested, and the “PBM E-score of 8-mer” value was 0.4657 ± 0.0021.
AAGGAATC was tested, and the “PBM E-score of 8-mer” value was -0.0838 ± 0.12.
For GTTAGCGA, the “PBM E-score of 8-mer” value was 0.319 ± 0.018.
ATGCTTCC was tested, and the “PBM E-score of 8-mer” value was -0.196 ± 0.015.
ATTACCCG was tested, and the “PBM E-score of 8-mer” value was -0.123 ± 0.019.
In the case of CTCCGCTC, the “PBM E-score of 8-mer” value is reported as -0.214 ± 0.0052.
In the case of ACACGGCA, the “PBM E-score of 8-mer” value is reported as 0.0195 ± 0.041.
In the case of TCAGCTCA, the “PBM E-score of 8-mer” value is reported as -0.041 ± 0.037.
CATCAATG was tested, and the “PBM E-score of 8-mer” value was -0.00592 ± 0.0072.
CTGTTCAC was tested, and the “PBM E-score of 8-mer” value was 0.263 ± 0.012.
For CACTGACA, the “PBM E-score of 8-mer” value was 0.245 ± 0.011.
For AAAGTCTG, the “PBM E-score of 8-mer” value was -0.163 ± 0.067.
In the case of CTCCGGTA, the “PBM E-score of 8-mer” value is reported as -0.0682 ± 0.046.
With GCAGGGGC the “PBM E-score of 8-mer” value was -0.193 ± 0.12.
With GTCTGATA the “PBM E-score of 8-mer” value was -0.0666 ± 0.023.
With AGAAACCG the “PBM E-score of 8-mer” value was -0.0946 ± 0.0052.
CGCTCTAC was tested, and the “PBM E-score of 8-mer” value was -0.148 ± 0.022.
TATTGGAA was tested, and the “PBM E-score of 8-mer” value was -0.2498 ± 0.0018.
For ACTTTACA, the “PBM E-score of 8-mer” value was 0.246 ± 0.086.
CAGCGCAC was tested, and the “PBM E-score of 8-mer” value was 0.0473 ± 0.14.
ATTGCCGG was tested, and the “PBM E-score of 8-mer” value was 0.00979 ± 0.029.
For AGGCTCGG, the “PBM E-score of 8-mer” value was -0.0598 ± 0.031.
CCCGACTA was tested, and the “PBM E-score of 8-mer” value was 0.00639 ± 0.076.
With CGGATAAA the “PBM E-score of 8-mer” value was -0.196 ± 0.013.
In the case of TCGGGAAA, the “PBM E-score of 8-mer” value is reported as -0.0866 ± 0.018.
With GTCTAATA the “PBM E-score of 8-mer” value was -0.208 ± 0.027.
With TATGATAA the “PBM E-score of 8-mer” value was -0.0124 ± 0.036.
For AAACGCAT, the “PBM E-score of 8-mer” value was -0.324 ± 0.019.
For ATTTGACA, the “PBM E-score of 8-mer” value was 0.327 ± 0.0078.
For CCATCCGA, the “PBM E-score of 8-mer” value was -0.298 ± 0.078.
With ATAATCAA the “PBM E-score of 8-mer” value was 0.0151 ± 0.0051.
For GCAATTTA, the “PBM E-score of 8-mer” value was -0.00664 ± 0.054.
AGAGTGCC was tested, and the “PBM E-score of 8-mer” value was -0.0362 ± 0.13.
In the case of CGGCGGAG, the “PBM E-score of 8-mer” value is reported as -0.127 ± 0.044.
In the case of CTAAGGGC, the “PBM E-score of 8-mer” value is reported as 0.0728 ± 0.063.
In the case of AAAGTAGA, the “PBM E-score of 8-mer” value is reported as -0.0946 ± 0.036.
GATCGCTA was tested, and the “PBM E-score of 8-mer” value was 0.15 ± 0.022.
For GCACTGGA, the “PBM E-score of 8-mer” value was -0.0659 ± 0.015.
With CTCGACGA the “PBM E-score of 8-mer” value was -0.0245 ± 0.043.
In the case of CCTGCTCG, the “PBM E-score of 8-mer” value is reported as -0.0468 ± 0.049.
In the case of GCCAATCC, the “PBM E-score of 8-mer” value is reported as 0.0146 ± 0.011.
In the case of CTCAGGGA, the “PBM E-score of 8-mer” value is reported as -0.225 ± 0.012.
